Measured values reported in PMC11995724, “Antibiotic target discovery by integrated phenotypic and activity-based profiling of electrophilic fragments” (Cell chemical biology, 2025).
In all, about 3,200 compounds went through this assay and about 110 (3.4%) showed an effect of 50% or more. Some of the results follow.

Each molecule was assayed on T1, V. cholerae SAD30. Details: relative growth, OD600, LB; 25 µM; inhibitor.
T1 construct: SAD30
Set-up: species or system S. aureus MSSA476 (TSB) or V. cholerae SAD30 (LB); 384-well bacterial growth screen at 25 uM, OD600 relative to DMSO control

SMILES	% of control remaining
Cc1cc(C)c(NC(=O)C(C)Cl)c(Cl)c1 (stereo not shown) [6-E10, 2-chloro-N-(2-chloro-4,6-dimethylphenyl)propanamide]	86.1503%
CC(Cl)C(=O)N1CCCC(c2cnn(C)c2)C1 (stereo not shown) [7-M16, 2-chloro-1-[3-(1-methyl-1H-pyrazol-4-yl)piperidin-1-yl]propan-1-one]	78.7709%
C=CC(=O)Nc1cccc2c1CCN2C(C)=O [1-F05, N-(1-acetyl-2,3-dihydro-1H-indol-4-yl)prop-2-enamide]	92.3767%
O=C(CCl)NCCS(=O)(=O)N1CCc2ccccc21 [6-H04, 2-chloro-N-[2-(2,3-dihydro-1H-indole-1-sulfonyl)ethyl]acetamide]	103.138%
C=CC(=O)Nc1ccccc1-n1nccn1 [3-H10, N-[2-(2H-1,2,3-triazol-2-yl)phenyl]prop-2-enamide]	92.7954%
O=C(CCl)Nc1ccccc1F [4-M16, 2-chloro-N-(2-fluorophenyl)acetamide]	98.3394%
O=C(CCl)NCC1CCCCN1C(=O)C(F)(F)F (stereo not shown) [5-C07, 2-chloro-N-{[1-(2,2,2-trifluoroacetyl)piperidin-2-yl]methyl}acetamide]	100.536%
CN1C=C(C(F)(F)F)C=CC1=C(C#N)C(=O)Nc1ccccc1F [8-H20, 2-cyano-N-(2-fluorophenyl)-2-[1-methyl-5-(trifluoromethyl)-1,2-dihydropyridin-2-ylidene]acetamide]	66.9613%
Cc1cc(C(=O)CCl)c(C)n1-c1ccc2c(c1)OCO2 [10-K14, 1-[1-(1,3-dioxaindan-5-yl)-2,5-dimethyl-1H-pyrrol-3-yl]-2-chloroethan-1-one]	102.552%
Cc1cc(CO[C@H]2CC[C@H](NC(=O)CCl)CC2)on1 [6-K19, 2-chloro-N-[(1r,4r)-4-[(3-methyl-1,2-oxazol-5-yl)methoxy]cyclohexyl]acetamide]	92.9756%
C=CC(=O)Nc1cc(CC(C)(C)C)no1 [1-I19, N-[3-(2,2-dimethylpropyl)-1,2-oxazol-5-yl]prop-2-enamide]	92.9746%
N#CC(=Cc1ccco1)C(=O)NC1CC1 [8-N21, 2-cyano-N-cyclopropyl-3-(furan-2-yl)prop-2-enamide]	77.9742%
N#Cc1cc([N+](=O)[O-])ccc1NC(=O)CCl [4-O09, 2-chloro-N-(2-cyano-4-nitrophenyl)acetamide]	91.611%
COC(=O)c1c(C(=O)CCl)c(C)n(C(C)C)c1C [10-K21, methyl 4-(2-chloroacetyl)-2,5-dimethyl-1-(propan-2-yl)-1H-pyrrole-3-carboxylate]	96.9414%
Cc1cc(F)c(C(=O)CCl)cc1F [10-L19, 2-chloro-1-(2,5-difluoro-4-methylphenyl)ethan-1-one]	32.7294%
Cc1ccccc1N(CC(=O)N1CCCCC1)C(=O)C(C)Cl (stereo not shown) [7-G20, 2-chloro-N-(2-methylphenyl)-N-[2-oxo-2-(piperidin-1-yl)ethyl]propanamide]	76.2597%
O=C(CCl)NCC1(c2ccccc2)CC1 [5-E15, 2-chloro-N-[(1-phenylcyclopropyl)methyl]acetamide]	92.8024%
C=CC(=O)NCc1csc2nccn12 [3-J13, N-({imidazo[2,1-b][1,3]thiazol-3-yl}methyl)prop-2-enamide]	88.5609%
C=CC(=O)N1CCC(C(=O)Nc2nc3cc(F)ccc3n2CC)CC1 [3-I13, N-(1-ethyl-5-fluoro-1H-1,3-benzodiazol-2-yl)-1-(prop-2-enoyl)piperidine-4-carboxamide]	79.2097%
C=CC(=O)N1CCC(Cc2ccccc2)CC1 [2-O10, 1-(4-benzylpiperidin-1-yl)prop-2-en-1-one]	81.8585%
C=CC(=O)NCC1CNC(=O)c2ccccc21 (stereo not shown) [2-F17, N-[(1-oxo-1,2,3,4-tetrahydroisoquinolin-4-yl)methyl]prop-2-enamide]	90.0415%
CC(C)Cc1nnc(NC(=O)CCl)s1 [4-A17, 2-chloro-N-[5-(2-methylpropyl)-1,3,4-thiadiazol-2-yl]acetamide]	116.455%
CC(Cl)C(=O)N1CCc2ncsc2C1 (stereo not shown) [7-C06, 2-chloro-1-{4H,5H,6H,7H-[1,3]thiazolo[5,4-c]pyridin-5-yl}propan-1-one]	80.8855%

SMILES	% of control remaining
C=CC(=O)N[C@@H](CC(N)=O)c1cccc(Cl)c1 [1-I15, N-[(1S)-2-carbamoyl-1-(3-chlorophenyl)ethyl]prop-2-enamide]	89.5366%
COc1ccc(C=C(C#N)C(=O)Nc2ccc([N+](=O)[O-])cc2)cc1 [8-C05, 2-cyano-3-(4-methoxyphenyl)-N-(4-nitrophenyl)prop-2-enamide]	82.189%
CCCC(=O)N1CCC(NC(=O)CCl)c2ccccc21 (stereo not shown) [6-E16, N-(1-butanoyl-1,2,3,4-tetrahydroquinolin-4-yl)-2-chloroacetamide]	88.5771%
O=C1C=CC(=O)N1c1ccc(Oc2ccccc2)cc1 [10-F17, 1-(4-phenoxyphenyl)-2,5-dihydro-1H-pyrrole-2,5-dione]	26.1835%
O=C(CCl)NCCc1cccs1 [5-L09, 2-chloro-N-[2-(thiophen-2-yl)ethyl]acetamide]	105.075%
N#CC(=Cc1cccc2ccccc12)C(=O)NCc1ccccc1 [8-O19, N-benzyl-2-cyano-3-(naphthalen-1-yl)prop-2-enamide]	62.0666%
N#CC(=Cc1cccc(F)c1)C(=O)NCCc1ccccc1 [8-J22, 2-cyano-3-(3-fluorophenyl)-N-(2-phenylethyl)prop-2-enamide]	73.0795%
CC(C)N(c1ccccc1)c1ccc(NC(=O)CCl)cc1 [6-I17, 2-chloro-N-{4-[phenyl(propan-2-yl)amino]phenyl}acetamide]	89.7905%
N#CC(=Cc1cccs1)C(=O)Nc1cccc2ncccc12 [8-D20, 2-cyano-N-(quinolin-5-yl)-3-(thiophen-2-yl)prop-2-enamide]	71.584%
CC(Cl)C(=O)NCC(=O)Nc1ccc(F)c(F)c1F (stereo not shown) [4-D20, 2-chloro-N-{[(2,3,4-trifluorophenyl)carbamoyl]methyl}propanamide]	102.48%
COC(=O)c1c(C)[nH]c(C(=O)C(C)Cl)c1C (stereo not shown) [10-D22, methyl 5-(2-chloropropanoyl)-2,4-dimethyl-1H-pyrrole-3-carboxylate]	105.669%
CCc1cnc(N2CCN(C(=O)C(C)Cl)CC2)s1 (stereo not shown) [7-C20, 2-chloro-1-[4-(5-ethyl-1,3-thiazol-2-yl)piperazin-1-yl]propan-1-one]	76.6562%
CN1CCN(C(=O)Cc2cccc(NC(=O)CCl)c2)CC1 [5-C22, 2-chloro-N-{3-[2-(4-methylpiperazin-1-yl)-2-oxoethyl]phenyl}acetamide]	111.968%
C=CC(=O)N1CC2(CCOCC2)C1c1ccco1 (stereo not shown) [1-D22, 1-[1-(furan-2-yl)-7-oxa-2-azaspiro[3.5]nonan-2-yl]prop-2-en-1-one]	111.384%
O=C(CCl)NC(CC1CC1)c1ccc(Cl)cn1 (stereo not shown) [6-F19, 2-chloro-N-[1-(5-chloropyridin-2-yl)-2-cyclopropylethyl]acetamide]	83.2686%
O=C(CCl)NCc1cc(C(F)F)no1 [6-H08, 2-chloro-N-{[3-(difluoromethyl)-1,2-oxazol-5-yl]methyl}acetamide]	92.824%
CC(Cl)C(=O)NCC1CN(S(C)(=O)=O)C1 (stereo not shown) [7-C04, 2-chloro-N-[(1-methanesulfonylazetidin-3-yl)methyl]propanamide]	94.4986%
CCc1ccc(-c2nn(-c3ccccc3)cc2C=C(C#N)C(N)=O)cc1 [8-O22, 2-cyano-3-[3-(4-ethylphenyl)-1-phenyl-1H-pyrazol-4-yl]prop-2-enamide]	74.0313%
Cc1cccc(C)c1NC(=O)C(C#N)=Cc1ccc(OC(F)F)cc1 [8-A11, 2-cyano-3-[4-(difluoromethoxy)phenyl]-N-(2,6-dimethylphenyl)prop-2-enamide]	85.588%
COc1ccccc1C(NC(=O)C(C)Cl)c1ccco1 (stereo not shown) [5-H19, 2-chloro-N-[(furan-2-yl)(2-methoxyphenyl)methyl]propanamide]	83.5557%
CC(Cl)C(=O)NCc1ccc2cnn(C)c2c1 (stereo not shown) [7-D21, 2-chloro-N-[(1-methyl-1H-indazol-6-yl)methyl]propanamide]	83.7932%
O=C(CCl)NC1CCN(C(=O)C2COc3ccccc3O2)CC1 (stereo not shown) [5-C09, 2-chloro-N-[1-(2,3-dihydro-1,4-benzodioxine-2-carbonyl)piperidin-4-yl]acetamide]	95.9966%
CC(=O)Nc1ccc(C2=NN(C(=O)CCl)C(c3ccco3)C2)cc1 (stereo not shown) [4-G22, N-{4-[1-(2-chloroacetyl)-5-(furan-2-yl)-4,5-dihydro-1H-pyrazol-3-yl]phenyl}acetamide]	115.074%
